# The other results are listed elsewhere or left out.
# B1: Threefoil (Haloarcula marismortui) (protein)
# chain: GSSHHHHHHHHHHSSGLVPRGSHMGDGYYKLVARHSGKALDVENASTSDGANVIQYSYSGGDNQQWRLVDLGDGYYKLVARHSGKALDVENASTSDGANVIQYSYSGGDNQQWRLVDLGDGYYKLVARHSGKALDVENASTSDGANVIQYSYSGGDNQQWRLVDL
# Experiments:
# Assay in all cases: glycan array binding signal (z-score within array); higher = stronger binding
# Settings in all cases: glycan notation: IUPAC condensed, linker removed
# Glc(b1-4)Glc = target: Glc(b1-4)Glc
# Method in brief: (§1)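 The Consortium for Functional Glycomics database supplied 3228 glycan arrays, of which those lacking an available protein sequence were dropped. The binding signal, a within-array Z-score, was averaged across arrays of the same protein sequence and across linkers. Negative scores can be read as non-binding.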
# Glc(b1-6)Glc = target: Glc(b1-6)Glc
# Method in brief: as §1
# GlcA(b1-3)Gal = target: GlcA(b1-3)Gal
# Method in brief: as §1
# GlcA(b1-3)GlcNAc = target: GlcA(b1-3)GlcNAc
# Method in brief: as §1
# GlcA(b1-6)Gal = target: GlcA(b1-6)Gal
# Method in brief: as §1
# [1] = target: GlcA3S(b1-3)Gal(b1-4)GlcNAc(b1-2)Man
# Method in brief: as §1
# [2] = target: GlcA3S(b1-3)Gal(b1-4)GlcNAc(b1-3)Gal(b1-4)Glc
# Method in brief: as §1
# [3] = target: GlcNAc(a1-3)Gal(b1-4)GlcNAc
# Method in brief: as §1
# [4] = target: GlcNAc(a1-4)Gal(b1-3)GlcNAc
# Method in brief: as §1
# [5] = target: GlcNAc(a1-4)Gal(b1-4)GalNAc
# Method in brief: as §1
# [6] = target: GlcNAc(a1-4)Gal(b1-4)GlcNAc
# Method in brief: as §1
# [7] = target: GlcNAc(a1-4)Gal(b1-4)GlcNAc(b1-3)Gal(b1-4)Glc
# Method in brief: as §1
# [8] = target: GlcNAc(a1-4)Gal(b1-4)GlcNAc(b1-3)Gal(b1-4)GlcNAc
# Method in brief: as §1
# [9] = target: GlcNAc(a1-4)Gal(b1-4)GlcNAc(b1-3)Gal(b1-4)GlcNAc(b1-3)Gal(b1-4)GlcNAc
# Method in brief: as §1
# [10] = target: GlcNAc(a1-4)Gal(b1-4)GlcNAc(b1-3)Gal(b1-4)[Fuc(a1-3)]GlcNAc(b1-3)Gal(b1-4)[Fuc(a1-3)]GlcNAc
# Method in brief: as §1
# [11] = target: GlcNAc(a1-6)Gal(b1-4)GlcNAc
# Method in brief: as §1
# [12] = target: GlcNAc(b1-2)Gal(b1-3)GalNAc
# Method in brief: as §1
# [13] = target: GlcNAc(b1-2)Man(a1-3)[GlcNAc(b1-2)Man(a1-6)]Man(b1-4)GlcNAc(b1-4)GlcNAc
# Method in brief: as §1
# [14] = target: GlcNAc(b1-2)Man(a1-3)[GlcNAc(b1-2)Man(a1-6)]Man(b1-4)GlcNAc(b1-4)[Fuc(a1-6)]GlcNAc
# Method in brief: as §1
# [15] = target: GlcNAc(b1-2)Man(a1-3)[GlcNAc(b1-4)][GlcNAc(b1-2)Man(a1-6)]Man(b1-4)GlcNAc(b1-4)GlcNAc
# Method in brief: as §1
# [16] = target: GlcNAc(b1-2)Man(a1-3)[GlcNAc(b1-4)][GlcNAc(b1-2)Man(a1-6)]Man(b1-4)GlcNAc(b1-4)[Fuc(a1-6)]GlcNAc
# Method in brief: as §1
# [17] = target: GlcNAc(b1-2)[GlcNAc(b1-4)]Man(a1-3)[GlcNAc(b1-2)Man(a1-6)]Man(b1-4)GlcNAc(b1-4)GlcNAc
# Method in brief: as §1
# [18] = target: GlcNAc(b1-2)[GlcNAc(b1-4)]Man(a1-3)[GlcNAc(b1-4)][GlcNAc(b1-2)Man(a1-6)]Man(b1-4)GlcNAc(b1-4)GlcNAc
# Method in brief: as §1
# [19] = target: GlcNAc(b1-2)[GlcNAc(b1-4)]Man(a1-3)[GlcNAc(b1-4)][GlcNAc(b1-2)[GlcNAc(b1-6)]Man(a1-6)]Man(b1-4)GlcNAc(b1-4)GlcNAc
# Method in brief: as §1
# [20] = target: GlcNAc(b1-2)[GlcNAc(b1-4)]Man(a1-3)[GlcNAc(b1-4)][GlcNAc(b1-2)[GlcNAc(b1-6)]Man(a1-6)]Man(b1-4)GlcNAc(b1-4)[Fuc(a1-6)]GlcNAc
# Method in brief: as §1
# [21] = target: GlcNAc(b1-2)[GlcNAc(b1-6)]Man(a1-6)[GlcNAc(b1-2)Man(a1-3)]Man(b1-4)GlcNAc(b1-4)GlcNAc
# Method in brief: as §1
# [22] = target: GlcNAc(b1-2)[GlcNAc(b1-6)]Man(a1-6)[GlcNAc(b1-2)Man(a1-3)]Man(b1-4)GlcNAc(b1-4)[Fuc(a1-6)]GlcNAc
# Method in brief: as §1
# [23] = target: GlcNAc(b1-2)[GlcNAc(b1-6)]Man(a1-6)[GlcNAc(b1-4)][GlcNAc(b1-2)Man(a1-3)]Man(b1-4)GlcNAc(b1-4)GlcNAc
# Method in brief: as §1
# GlcNAc(b1-3)Fuc = target: GlcNAc(b1-3)Fuc
# Method in brief: as §1
# GlcNAc(b1-3)Gal = target: GlcNAc(b1-3)Gal
# Method in brief: as §1
# [24] = target: GlcNAc(b1-3)Gal(b1-3)GalNAc
# Method in brief: as §1
# GlcNAc(b1-3)Gal(b1-4)Glc = target: GlcNAc(b1-3)Gal(b1-4)Glc
# Method in brief: as §1
# [25] = target: GlcNAc(b1-3)Gal(b1-4)GlcNAc
# Method in brief: as §1
# [26] = target: GlcNAc(b1-3)Gal(b1-4)GlcNAc(b1-2)Man(a1-3)[GlcNAc(b1-3)Gal(b1-4)GlcNAc(b1-2)Man(a1-6)]Man(b1-4)GlcNAc(b1-4)GlcNAc
# Method in brief: as §1
# [27] = target: GlcNAc(b1-3)Gal(b1-4)GlcNAc(b1-2)Man(a1-3)[GlcNAc(b1-3)Gal(b1-4)GlcNAc(b1-2)Man(a1-6)]Man(b1-4)GlcNAc(b1-4)[Fuc(a1-6)]GlcNAc
# Method in brief: as §1
# [28] = target: GlcNAc(b1-3)Gal(b1-4)GlcNAc(b1-2)[GlcNAc(b1-3)Gal(b1-4)GlcNAc(b1-6)]Man(a1-6)[GlcNAc(b1-3)Gal(b1-4)GlcNAc(b1-2)Man(a1-3)]Man(b1-4)GlcNAc(b1-4)GlcNAc
# Method in brief: as §1
# [29] = target: GlcNAc(b1-3)Gal(b1-4)GlcNAc(b1-3)Gal(b1-4)GlcNAc
# Method in brief: as §1
# [30] = target: GlcNAc(b1-3)Gal(b1-4)GlcNAc(b1-3)Gal(b1-4)GlcNAc(b1-2)Man(a1-3)[GlcNAc(b1-3)Gal(b1-4)GlcNAc(b1-3)Gal(b1-4)GlcNAc(b1-2)Man(a1-6)]Man(b1-4)GlcNAc(b1-4)GlcNAc
# Method in brief: as §1
# [31] = target: GlcNAc(b1-3)Gal(b1-4)GlcNAc(b1-3)Gal(b1-4)GlcNAc(b1-2)Man(a1-3)[GlcNAc(b1-3)Gal(b1-4)GlcNAc(b1-3)Gal(b1-4)GlcNAc(b1-2)Man(a1-6)]Man(b1-4)GlcNAc(b1-4)[Fuc(a1-6)]GlcNAc
# Method in brief: as §1
# [32] = target: GlcNAc(b1-3)Gal(b1-4)GlcNAc(b1-3)Gal(b1-4)GlcNAc(b1-2)[GlcNAc(b1-3)Gal(b1-4)GlcNAc(b1-3)Gal(b1-4)GlcNAc(b1-6)]Man(a1-6)[GlcNAc(b1-3)Gal(b1-4)GlcNAc(b1-3)Gal(b1-4)GlcNAc(b1-2)Man(a1-3)]Man(b1-4)GlcNAc(b1-4)[Fuc(a1-6)]GlcNAc
# Method in brief: as §1
# [33] = target: GlcNAc(b1-3)Gal(b1-4)GlcNAc(b1-3)Gal(b1-4)GlcNAc(b1-3)Gal(b1-4)GlcNAc(b1-2)Man(a1-3)[GlcNAc(b1-3)Gal(b1-4)GlcNAc(b1-3)Gal(b1-4)GlcNAc(b1-3)Gal(b1-4)GlcNAc(b1-2)Man(a1-6)]Man(b1-4)GlcNAc(b1-4)GlcNAc
# Method in brief: as §1
# [34] = target: GlcNAc(b1-3)Gal(b1-4)GlcNAc(b1-3)Gal(b1-4)GlcNAc(b1-3)Gal(b1-4)GlcNAc(b1-2)Man(a1-3)[GlcNAc(b1-3)Gal(b1-4)GlcNAc(b1-3)Gal(b1-4)GlcNAc(b1-3)Gal(b1-4)GlcNAc(b1-2)Man(a1-6)]Man(b1-4)GlcNAc(b1-4)[Fuc(a1-6)]GlcNAc
# Method in brief: as §1
# [35] = target: GlcNAc(b1-3)Gal(b1-4)GlcNAc(b1-3)Gal(b1-4)GlcNAc(b1-3)Gal(b1-4)GlcNAc(b1-2)[GlcNAc(b1-3)Gal(b1-4)GlcNAc(b1-3)Gal(b1-4)GlcNAc(b1-3)Gal(b1-4)GlcNAc(b1-6)]Man(a1-6)[GlcNAc(b1-3)Gal(b1-4)GlcNAc(b1-3)Gal(b1-4)GlcNAc(b1-3)Gal(b1-4)GlcNAc(b1-2)Man(a1-3)]Man(b1-4)GlcNAc(b1-4)[Fuc(a1-6)]GlcNAc
# Method in brief: as §1
# [36] = target: GlcNAc(b1-3)Gal(b1-4)GlcNAc(b1-3)Gal(b1-4)GlcNAc(b1-3)Gal(b1-4)GlcNAc(b1-3)Gal(b1-4)GlcNAc(b1-2)Man(a1-3)[GlcNAc(b1-3)Gal(b1-4)GlcNAc(b1-3)Gal(b1-4)GlcNAc(b1-3)Gal(b1-4)GlcNAc(b1-3)Gal(b1-4)GlcNAc(b1-2)Man(a1-6)]Man(b1-4)GlcNAc(b1-4)GlcNAc
# Method in brief: as §1
# [37] = target: GlcNAc(b1-3)Gal(b1-4)GlcNAc(b1-3)Gal(b1-4)GlcNAc(b1-3)Gal(b1-4)GlcNAc(b1-3)Gal(b1-4)GlcNAc(b1-2)Man(a1-3)[GlcNAc(b1-3)Gal(b1-4)GlcNAc(b1-3)Gal(b1-4)GlcNAc(b1-3)Gal(b1-4)GlcNAc(b1-3)Gal(b1-4)GlcNAc(b1-2)Man(a1-6)]Man(b1-4)GlcNAc(b1-4)[Fuc(a1-6)]GlcNAc
# Method in brief: as §1
binder,measurement,setting,value
B1,glycan array binding signal (z-score),Glc(b1-4)Glc,-0.247
same,glycan array binding signal (z-score),Glc(b1-6)Glc,-0.209
same,glycan array binding signal (z-score),GlcA(b1-3)Gal,-0.209
same,glycan array binding signal (z-score),GlcA(b1-3)GlcNAc,-0.238
same,glycan array binding signal (z-score),GlcA(b1-6)Gal,-0.222
same,glycan array binding signal (z-score),[1],-0.248
same,glycan array binding signal (z-score),[2],-0.293
same,glycan array binding signal (z-score),[3],-0.322
same,glycan array binding signal (z-score),[4],-0.176
same,glycan array binding signal (z-score),[5],-0.271
same,glycan array binding signal (z-score),[6],-0.161
same,glycan array binding signal (z-score),[7],-0.253
same,glycan array binding signal (z-score),[8],-0.319
same,glycan array binding signal (z-score),[9],-0.208
same,glycan array binding signal (z-score),[10],-0.07
same,glycan array binding signal (z-score),[11],-0.15
same,glycan array binding signal (z-score),[12],-0.251
same,glycan array binding signal (z-score),[13],-0.259
same,glycan array binding signal (z-score),[14],-0.176
same,glycan array binding signal (z-score),[15],-0.246
same,glycan array binding signal (z-score),[16],-0.223
same,glycan array binding signal (z-score),[17],-0.222
same,glycan array binding signal (z-score),[18],-0.145
same,glycan array binding signal (z-score),[19],-0.028
same,glycan array binding signal (z-score),[20],-0.103
same,glycan array binding signal (z-score),[21],-0.27
same,glycan array binding signal (z-score),[22],-0.222
same,glycan array binding signal (z-score),[23],-0.143
same,glycan array binding signal (z-score),GlcNAc(b1-3)Fuc,-0.283
same,glycan array binding signal (z-score),GlcNAc(b1-3)Gal,-0.29
same,glycan array binding signal (z-score),[24],-0.263
same,glycan array binding signal (z-score),GlcNAc(b1-3)Gal(b1-4)Glc,-0.299
same,glycan array binding signal (z-score),[25],-0.26
same,glycan array binding signal (z-score),[26],-0.105
same,glycan array binding signal (z-score),[27],-0.052
same,glycan array binding signal (z-score),[28],-0.215
same,glycan array binding signal (z-score),[29],-0.349
same,glycan array binding signal (z-score),[30],-0.166
same,glycan array binding signal (z-score),[31],-0.012
same,glycan array binding signal (z-score),[32],-0.21
same,glycan array binding signal (z-score),[33],-0.169
same,glycan array binding signal (z-score),[34],0.158
same,glycan array binding signal (z-score),[35],-0.157
same,glycan array binding signal (z-score),[36],-0.119
same,glycan array binding signal (z-score),[37],0.011
